The whole screen tested about 350,000 compounds, of which about 9,900 (2.8%) were called active. The inconclusive results got no clear call from the source; some entries with a clear call stand among them for comparison. Calls come from the whole dose curve; as a rule, active = well fitted activation curve with a large enough effect; inconclusive = small, poorly fitted or top-dose-only effect; inactive = no such curve, though single readings can be large or run the other way. No potency is given beside an inconclusive call; the fits are too rough.
Experiment: A quantitative high throughput screen for small molecules that induce DNA re-replication in MCF 10a normal breast cells. For activity, positive = re-replication: % of control where 0% means no effect. Note: nearly all actives have a fitted effect of over 50% in size.
Settings: MCF 10A DNA re-replication, Hoechst nuclear intensity, 48 h; activity, positive = re-replication: at 46.1 µM (top of the series)
Potency is the fitted concentration of half-maximal effect; tags give direction and shape of the fitted curve.

SMILES | Potency | activity, positive = re-replication
COc1ccc2c(c1)c(C(=O)N/N=C/c1ccc(O)c(O)c1)c(C)n2C | inactive | –
C=CC1C(N2CCOCC2)C(C)(C)S1(=O)=O (stereo not given) | inconclusive [activator, full curve, poor fit] | –
CCC(=O)Nc1ccc(Oc2ccc(NC(=O)CC)c(NC(=O)CC)c2)cc1 | inconclusive [activator, single point] | –
O=C(c1ccccc1)c1ccc(OCC(O)CN2CCN(Cc3ccccc3)CC2)cc1 (stereo not given) | inconclusive [activator, single point] | –
COc1ccc(/C=C/C(=O)NC(=S)Nc2ccccc2C(=O)NC2CCCCC2)cc1 | active: 18.4 µM | –
CC(=O)C1=NN(c2ccccc2)C(c2ccc3c(c2)OCO3)N1c1ccccc1 (stereo not given) | active: 8.2 µM | –
COc1cc2c(cc1NC(=O)c1cccc([N+](=O)[O-])c1C)oc1ccccc12 | inconclusive [activator, single point] | –
COc1cc(C2NC(=O)CCC2[N+](=O)[O-])cc(OC)c1OC (stereo not given) | inconclusive [activator, single point] | –
COc1ccc(C(=O)/C=C/Nc2cccc(O)c2)cc1 | inactive | –
Cc1ccc(CCC(=O)Nc2ccc([N+](=O)[O-])cc2)o1 | inactive | –
Cc1ccc(C(=O)NNC(=O)CCCN2C(=O)/C(=C/c3ccccc3Cl)SC2=S)cc1 | inactive | –
CC1(C)CC(=O)C2=C(C1)c1c(ccc3ccccc13)NC2c1ccc(C(=O)O)cc1 (stereo not given) | inactive | –
CC(=O)OCC12COC3c4ccccc4OC(C)(CC1C)C3C2C (stereo not given) | inconclusive [activator, single point] | –
FC(F)(F)c1nnc(Nc2ccc(Cl)cc2)s1 | inconclusive [activator, partial curve, poor fit] | –
O=C(N/N=C/c1ccco1)c1ccc(N2CCCC2=O)cc1 | inconclusive [activator, single point] | –
CCOC(=O)C1=C(C)Nc2sc(C(=O)c3ccc(F)cc3)c(N)c2C1c1ccc(C(=O)OC)cc1 (stereo not given) | active: 2.59 µM | –
CC(C)CC(=O)NN(C)c1nc(-c2ccccc2)nnc1C(F)(F)F | inactive | –
NS(=O)(=O)c1ccc(CCNC(=O)CSCC(=O)Nc2ccc(Cl)cc2)cc1 | inactive | –
COc1cc(/C=C/C(=O)OC2CC3CCC2(C)C3(C)C)ccc1O (stereo not given) | inconclusive [activator, single point] | –
Cn1c(N)c(C(=O)COC(=O)C2(c3ccc(Cl)cc3)CCCC2)c(=O)n(C)c1=O | inconclusive [activator, single point] | –
CC(C)CN(C(=O)CSc1nnnn1C)C1CCS(=O)(=O)C1 (stereo not given) | inconclusive [activator, partial curve, poor fit] | –
COc1ccc(C)cc1S(=O)(=O)NCCC1=CCCCC1 | inactive | –
COc1ccccc1/C=C/C=N/N1CCN(Cc2cccc3ccccc23)CC1 | inconclusive [activator, partial curve] | –
CCc1nnc(N/N=C/c2c(Cl)cccc2Cl)n1N | inactive | –

SMILES | Potency | activity, positive = re-replication
COc1ccc(Cl)c2sc(N(CCN(C)C)C(=O)CCS(=O)(=O)c3ccc(C)cc3)nc12 | inconclusive [activator, single point] | –
CCOc1cc(/C=N/NC(=O)c2cc(-c3ccccc3)nc3ccccc23)ccc1O | inconclusive [activator, partial curve, poor fit] | –
N#C/C(=C(/O)c1ccc(F)cc1)c1nc2ccccc2s1 | inconclusive [activator, single point] | –
CCCCn1nc(NC(=O)CC(C)C)c2cc3cc(OC)ccc3nc21 | active: 14.6 µM | –
Cn1nnc2c[n+](CC(=O)c3ccc(Cl)cc3)cc(Br)c21 | inconclusive [activator, single point] | –
CCC1CCCCN1C(=O)COc1ccccc1NC(C)=O (stereo not given) | inactive | –
CCOc1ccc(C(=O)NCC(=O)OCc2cc([N+](=O)[O-])cc3c2OCOC3)cc1OCC | inconclusive [activator, single point] | –
CCN(CC)S(=O)(=O)c1cc(NC(=O)CNc2cccc(S(=O)(=O)N3CCCC3)c2)ccc1C | inactive | –
CCSc1nc(-c2ccc(OC)cc2)cc(-c2ccc(OC)cc2)c1C#N | inconclusive [activator, single point] | –
Cc1ccc(NC(=O)c2cc(=O)[nH]c3ccccc23)cc1 | inactive | –
COc1ccc(Nc2cc(C(=O)NCCCOC(C)C)c3ccccc3n2)c(OC)c1 | inconclusive [activator, single point] | –
CN(Cc1ccccc1)CC1CCCN(CCc2ccccc2F)C1 (stereo not given) | inconclusive [activator, partial curve, poor fit] | –
Cc1cc(C(=O)CSc2nnnn2C)c(C)n1-c1ccc2c(c1)OCCO2 | inconclusive [activator, partial curve, poor fit] | –
CC(=O)C[C@@H](O)CC(=O)[C@H]1OC(=O)[C@H](C)C/C=C\Cc2ccccc21 | inconclusive [activator, single point] | –
CCOc1c(OC)cccc1C(=O)NCC1(c2ccccc2)CCCC1 | active: 20.6 µM | –
CCOc1cc2c3c(c1)C(C)CC(C)(C)N3C(=O)C2=O (stereo not given) | inconclusive [activator, single point] | –
Cc1ccc(Cl)cc1N1CCN(S(C)(=O)=O)CC1 | inconclusive [activator, single point] | –
COc1cc2c(cc1OC)C(c1ccc3c(c1)OCO3)CC(=O)N2 (stereo not given) | inconclusive [activator, partial curve, poor fit] | –
CN(C)S(=O)(=O)c1cccc(C(=O)Nc2ccccc2[N+](=O)[O-])c1 | inconclusive [activator, single point] | –
COc1ccc(S(=O)(=O)Nc2ccccc2-c2nnn(CC(=O)Nc3ccccc3OC)n2)cc1 | inconclusive [activator, single point] | –
CC1CCCCC12NC(=O)N(CC(=O)N1CCN(c3ccccc3)CC1)C2=O (stereo not given) | inactive | –
Cc1ccccc1NC(=S)N1CCCN(Cc2ccc(F)cc2)C1 | inactive | –
Cc1ccccc1Nc1nc(N)nc(COC(=O)c2cccc(S(=O)(=O)N(C)c3ccccc3)c2)n1 | inconclusive [activator, partial curve, poor fit] | –
CC(C)C1CC(CCNCc2ccc3c(c2)OCO3)(c2ccccc2)CCO1 (stereo not given) | inconclusive [activator, single point] | –

SMILES | Potency | activity, positive = re-replication
C=CCn1c(SCC(=O)Nc2cc(C)on2)nnc1-c1ccccc1F | – | inconclusive: -30.8% [activator]
COc1ccc(/C=N/NC(=O)c2cc[n+]([O-])cc2)cc1 | inconclusive [activator, single point] | –
CCc1cc(CC)c(/C=N/NC(N)=O)c(CC)c1 | inactive | –
COc1cccc(C(=O)NCCNC(=O)c2ccccn2)c1 | inactive | –
CC(=O)Nc1ccc(S(=O)(=O)NCc2csc(C)n2)cc1 | inconclusive [activator, partial curve, poor fit] | –
O=C(CN1CCCC1)Nc1nnc(-c2cccs2)s1 | inconclusive [activator, partial curve, poor fit] | –
Cc1cccc(/C=C2\Oc3cc(OS(C)(=O)=O)ccc3C2=O)c1 | inactive | –
CCc1nc2c(cnn2-c2ccc(Cl)cc2)c(=O)n1-c1ccc2c(c1)OCCO2 | – | inactive: 11.6% [at 9.22 µM]
C/C(=N/Nc1ccccc1C(=O)O)c1cccs1 | inconclusive [activator, partial curve, poor fit] | –
Nc1ccc2nc(SCc3cccc(F)c3)sc2c1 | inconclusive [activator, single point] | –
CC(C)[C@H](NC(=O)Cc1ccccc1)C(=O)OCc1cc(=O)n2c(n1)sc1ccccc12 | inconclusive [activator, partial curve, poor fit] | –
O=C(NC1(Cc2ccccc2)CCN(CCCc2ccccc2)C1=O)c1ccccc1 (stereo not given) | inconclusive [activator, partial curve, poor fit] | –
Cc1ccc(N2C(=O)c3cccc4c(N5CCN(C)CC5)ccc(c34)C2=O)c2cccnc12 | inactive | –
CCSc1nnc(NC(=O)c2cc(C)oc2C)s1 | inconclusive [activator, full curve, poor fit] | –
COc1ccc(-n2nnnc2SCC(N)=O)cc1 | inconclusive [activator, single point] | –
Cc1nc(NC(=O)/C=C/c2ccco2)sc1C | inconclusive [activator, full curve, poor fit] | –
CCOC(=O)c1c(/N=C/c2cccc([N+](=O)[O-])c2O)sc(C)c1C | inconclusive [activator, single point] | –
Cc1ccc(CN2CCCN(Cc3ccc(F)cc3Cl)S2(=O)=O)cc1 | inconclusive [activator, full curve, poor fit] | –
COc1ccc2[nH]c(C(=O)Nc3ccc4c(c3)OCO4)cc2c1 | inactive | –
O=C(Oc1ccc(Cl)c2cccnc12)c1cccnc1 | inconclusive [activator, full curve, poor fit] | –
CCOC(=O)N1CCN(C(=O)c2cn(CC)c3ccc(S(=O)(=O)N4CC(C)CC(C)C4)cc3c2=O)CC1 (stereo not given) | active: 2.31 µM | –
CCOC(=O)c1sc2nc(CC(=O)OC)nc(NCc3ccc(F)cc3)c2c1C | inconclusive [activator, partial curve] | –

Reference: PubChem BioAssay AID624296 (National Center for Advancing Translational Sciences (NCATS), 2012)
